# ± gives the standard deviation of the averaged measurements. The list shows a part of the results.
# System: PfAP2-G AP2 domain (GST-tagged)
# Test: gcPBM binding intensity (ln(normalized median fluorescence intensity)); higher = stronger DNA binding
# Outline: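 The binding buffer was 1× PBS containing 1% milk, 0.2 mg/ml BSA, 0.5% salmon testes DNA and 0.03% Triton X-100. In it, GST-tagged P. falciparum DNA-binding domains expressed in E. coli were applied for 1 h to an Agilent 4 × 180k array of primer-extended double-stranded 36-bp intergenic genomic probes plus negative controls. Binding intensity, read with Alexa488 anti-GST antibody and a 488 nm scan, is the highest Masliner-normalised natural-log median intensity across replicate spots of either probe orientation.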
row,Sequence,gcPBM binding intensity (ln)
1,AACGCACGAGGACACACACACATATTTATATTTATA [CACACA_site6608],11.4 ± 0.91
2,ATTTATATATAATATACACACATATAATACCCATAT [CACACA_site4548],10.2 ± 0.19
3,TTTCAAATTTAATACACACACAAGTATATATCTATC [CACACA_site7782],9.91 ± 0.042
4,ATATATTTTATATAATGTACATAAACCGCACACATA [XGTACX_site6061],11.1 ± 0.59
5,ATTTAAAAAAAAAAAAAAAAAAAAAAAAAAAGAAAA [CACACA_negctrl_site722],9.65 ± 0.085
6,TTTAATATTAGCATATGTACACAAATCACACGGAAA [XGTACX_site2473],11.4 ± 0.81
7,TATATTATGACCACCACACACCTATACACATAACAT [CACACA_site7199],11.4 ± 0.91
8,TAATCCTTTCAATATTGTACACATTTGTGTTAAGAA [XGTACX_site1275],11.4 ± 0.99
9,ATTTAATTTGTTCTTACACACACATATATATATATT [CACACA_site8310],10.2 ± 0.11
10,ATAATATAAATACAAACACACAATTGCGTCCACATT [CACACA_site5039],11.6 ± 0.93
11,TCATACGAAATATAAACACACATACAATAAATAAAT [CACACA_site5156],9.92 ± 0.042
12,ATATTAAATGTTATCACACACATAATTACTTCCATA [CACACA_site7160],10.1 ± 0.13
13,TATTAAATGGCCATTACATGCAATTATTTCTAATAA [TGCATGCA_site275],10 ± 0.19
14,GGACAAGAATAGTGCACATGCAATGTTATTTTTTAT [TGCATGCA_site450],10.46 ± 0.064
15,ATTATAACCATATACACACCCATATAAATAAATATA [CACACA_site6926],10.17 ± 0.099
16,CGTTTTAATAAGATCACACATATAATATATATATAT [CACACA_site5159],9.88 ± 0.18
17,TCAAATATATAGAATACACACATGGATATAAGAAAT [CACACA_site4065],9.99 ± 0.057
18,TATATATATACATATTGTACATGTGTATATTTTTTT [XGTACX_site361],11 ± 0.49
19,TTAGTTATTAAAAAAAGTACATAAGTAGATATCATC [XGTACX_site8712],11.4 ± 1
20,AAAATTTAATATAATGCACACATAAAAAAAAAAAAA [CACACA_site7923],9.99 ± 0.42
21,CCATTTTTTTTATACGCACACGTCATACTTTTAAAA [CACACA_site4988],10.7 ± 0.33
22,ACATATGAATATAATACACACTTGTATTATTAATAT [CACACA_site8546],9.94 ± 0.17
23,TTACCTTTATTGTATGAACACACATAAGCTGATACA [CACACA_site9334],10.1 ± 0.2
24,AAAAAAAAAAAAAGAGTGCAAACTATGATAATTTAA,9.93 ± 0.042
25,TTATTTCATTCTTGAAGTACGTGAAAAATGAAAACA [XGTACX_site4089],11.4 ± 1.1

# — the supplement of paper PMC11417369
